Data published in the antibiotic and cytotoxicity screens of Wong et al. (2023).
Some of the results follow.

The compounds below were run on S. aureus RN4220 (assay: growth inhibition call (relative growth <= 0.2)). Settings: 50 µM.

| Structure (SMILES) | growth inhibition call |
| --- | --- |
| COc1ccc(S(=O)(=O)N(C)C[C@@H]2Oc3ccc(NC(=O)Cc4ccccc4)cc3C(=O)N([C@H](C)CO)C[C@H]2C)cc1 | inactive |
| C[C@@H]1CCCCO[C@@H](CN(C)S(=O)(=O)c2ccc(F)cc2)[C@H](C)CN([C@@H](C)CO)C(=O)c2cc(NS(C)(=O)=O)ccc2O1 | inactive |
| Cc1ccc(S(=O)(=O)Nc2ccc3c(c2)C(=O)N([C@H](C)CO)C[C@H](C)[C@@H](CN(C)C(=O)NC2CCCCC2)OCCCC[C@@H](C)O3)cc1 | inactive |
| Cc1ccc(S(=O)(=O)N(C)C[C@H]2OCCCC[C@H](C)Oc3ccc(NC(=O)Nc4cccc5ccccc45)cc3C(=O)N([C@@H](C)CO)C[C@H]2C)cc1 | inactive |
| O=C(Cc1ccncc1)NCC[C@@H]1CC[C@@H](NC(=O)C2CCOCC2)[C@H](CO)O1 | inactive |
| O=C(Cn1cc([N+](=O)[O-])cn1)n1cccn1 | inactive |
| CCC(c1ccc(O)cc1)C(CC)c1ccc(O)cc1 (stereo not given) | inactive |
| CC(C)NC(=O)Nc1ccc2c(c1)C(=O)N(C)[C@H]1CC[C@H](CC(=O)NCc3ccc(F)cc3)O[C@@H]1CO2 | inactive |
| C[C@H](CO)N1C[C@H](C)[C@H](CN(C)C(=O)Nc2cccc3ccccc23)OCCCC[C@H](C)Oc2ccc(NC(=O)c3ccccc3)cc2C1=O | inactive |
| C[C@H](CO)N1C[C@H](C)[C@H](CN(C)CC2CC2)Oc2ccc(NC(=O)CCN3CCOCC3)cc2CC1=O | inactive |
| COc1cc2c(cc1OC)CN(C(=O)[C@H]1[C@@H]3C(=O)O[C@@H](c4ccccc4)[C@@H](c4ccccc4)N3[C@@H](c3ccc(O)cc3)[C@]13C(=O)Nc1ccccc13)CC2 | inactive |
| C[C@@H]1CCCCO[C@@H](CN(C)S(=O)(=O)c2ccc(Cl)cc2)[C@H](C)CN([C@H](C)CO)C(=O)c2cc(NC(=O)Nc3ccc4c(c3)OCO4)ccc2O1 | inactive |
| C=CCC[C@@H](Cc1ccc(F)cc1)C(=O)O[C@H](CNC(=O)[C@@H](CC=C)CC(=O)N[C@H](CO)Cc1ccccc1)c1ccccc1 | inactive |
| CC(C)C[C@H]1NC(=O)[C@@H](C)NC(=O)[C@@]23C(=O)N[C@@H](Cc4ccccc4)[C@H]2[C@H](C)[C@@]2(C)O[C@H]2[C@@H]3/C=C/C/C=C\CNC1=O | inactive |
| C[C@H]1CN([C@@H](C)CO)C(=O)c2cc(NC(=O)CCCN(C)C)ccc2O[C@@H]1CN(C)Cc1ccncc1 | inactive |
| C[C@H](CO)N1C[C@H](C)[C@@H](CN(C)C(=O)Nc2ccccc2C(F)(F)F)OCc2cnnn2CCCC1=O | inactive |
| COC1=CC(=O)C(O)=CC1=CC=Cc1ccccc1 | inactive |
| C[C@H]1CN([C@@H](C)CO)C(=O)c2cc(NC(=O)Cc3cn(C)c4ccccc34)ccc2O[C@@H]1CN(C)Cc1ccc(-c2ccccc2)cc1 | inactive |
| CN(C)CCC(=O)N1CCNCC1 | inactive |
| O=C(C[C@@H]1CC[C@@H]2[C@H](COC[C@@H](O)CN2C(=O)Nc2ccc(C(F)(F)F)cc2)O1)NCc1ccncn1 | inactive |

| Structure (SMILES) | growth inhibition call |
| --- | --- |
| COc1ccc(NC(=O)N(C)C[C@@H]2OCCCC[C@@H](C)Oc3ccc(NC(=O)NC4CCCCC4)cc3C(=O)N([C@H](C)CO)C[C@H]2C)cc1 | inactive |
| C[C@@H]1CN([C@@H](C)CO)C(=O)c2cccc(NS(=O)(=O)c3cn(C)cn3)c2O[C@@H]1CN(C)CC1CCCCC1 | inactive |
| C[C@H]1CN([C@@H](C)CO)C(=O)c2cc(NC(=O)c3ccncc3)ccc2O[C@@H]1CN(C)S(=O)(=O)c1ccccc1 | inactive |
| CNC(=O)[C@@H](c1ccccc1)N1CCc2cc(OC)c(OC)cc2[C@@H]1CCc1ccc(C(F)(F)F)cc1 | inactive |
| Cc1cc(C(=O)O)n[nH]1 | inactive |
| C[C@H](CO)N1C[C@H](C)[C@@H](CN(C)C(=O)Nc2ccc(F)cc2)Oc2ccc(NC(=O)C3CC3)cc2CC1=O | inactive |
| CC(C)NC(=O)Nc1cccc2c1O[C@@H](CN(C)S(=O)(=O)c1cn(C)cn1)[C@@H](C)CN([C@H](C)CO)C2=O | inactive |
| C[C@H]1CN([C@@H](C)CO)C(=O)c2cc(C#CC(C)(C)O)cnc2O[C@@H]1CN(C)C(=O)CN(C)C | inactive |
| NCCCCCC(O)(P(=O)(O)O)P(=O)(O)O | inactive |
| CC1(C)C2CCC1(C)C(O)C2 (stereo not given) | inactive |
| COc1ccc(S(=O)(=O)Nc2ccc3c(c2)C(=O)N([C@H](C)CO)C[C@@H](C)[C@@H](CN(C)Cc2ccc(C(=O)O)cc2)OCCCC[C@@H](C)O3)cc1 | inactive |
| C[C@H](CO)N1C[C@H](C)[C@H](CN(C)Cc2ccc(F)cc2)Oc2ncc(C#Cc3cccnc3)cc2C1=O | inactive |
| CCC(C)C(=O)OC1CC(O)C=C2C=CC(C)C(CCC(O)CC(O)CC(=O)[O-])C21.[Na+] (stereo not given) | inactive |
| C[C@H]1CN([C@@H](C)CO)C(=O)c2cccc(NC(=O)c3ccc(-c4nccs4)cc3)c2O[C@@H]1CN(C)C(=O)Nc1ccc(C(F)(F)F)cc1 | inactive |
| COc1ccc(CN(C)C[C@@H]2OCCCC[C@@H](C)Oc3ccc(NC(=O)NC(C)C)cc3C(=O)N([C@H](C)CO)C[C@H]2C)cc1 | inactive |
| CC(=O)OC[C@@H]1O[C@H](O[C@@H]2CC[C@]34C[C@]35CC[C@]3(C)[C@@H]([C@@H](C)[C@H]6C[C@@H](O)C(C)(C)O6)CC[C@@]3(C)[C@H]5CC[C@H]4[C@H]2C)[C@@H](O)[C@H](OC(C)=O)[C@@H]1O[C@H]1O[C@@H](CO)[C@@H](O[C@H]2O[C@@H](CO)[C@@H](O)[C@@H](O)[C@@H]2O)[C@@H](O[C@H]2O[C@@H](C)[C@@H](O)[C@@H](O)[C@@H]2O)[C@@H]1O | inactive |
| CN1CCN(C(=O)C[C@@H]2CC[C@H]3[C@@H](COC[C@@H](O)CN3S(=O)(=O)c3cccc(F)c3)O2)CC1 | inactive |
| Cc1ccc(S(=O)(=O)N[C@@H]2CC[C@H](CCNC(=O)CN3CCOCC3)O[C@@H]2CO)cc1 | inactive |
| O=C1CCNc2cc3ccccc3cc21 | active |
| C[C@H]1CN([C@@H](C)CO)C(=O)c2cc(NS(=O)(=O)c3ccccc3)ccc2O[C@@H]1CN(C)CC1CC1 | inactive |
